Screen size: about 46,000 compounds; about 60 (0.1%) were called active. About 3% were inconclusive and are not listed. Calls come from the whole dose curve; as a rule, active = well fitted inhibition curve with a large enough effect; inconclusive = small, poorly fitted or top-dose-only effect; inactive = no such curve, though single readings can be large or run the other way. This is one part of the list.
assay: Primary qHTS assay for Inhibitors of ovarian cancer metastasis using an organotypic tumor microenvironment (TME) model.; note: nearly all actives have a fitted effect of over 65% in size;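 for activity change, negative = inhibition: plate controls were DMSO wells for no effect and tomatine positive control wells for full effect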; details: SKOV3ip1-GFP adhesion/invasion on 3D omental model, fluorescence; series mostly up to 45.8 µM; activity change, negative = inhibition: at the top concentration
Method in brief: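 A 3D layer of primary human omental fibroblasts, mesothelial cells, fibronectin and collagen I, grown 48 hr, received SKOV3ip1-GFP cells in serum-free medium plus compounds at 0.36-46 umol/L. After 2 hr RT and 16 hr 37 C, fixed adherent GFP cells were counted; normalized to DMSO and tomatine.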

outcome, inactive:
Cc1ccc(C)n1-c1nnc(N2CCCC(C(=O)NCc3cccc(Br)c3)C2)s1 (stereo not given), COc1cccc(NC(=O)N(Cc2cn(C)c3ccccc23)C2CCCCCC2)c1, Cc1ccc(CNC(=O)CCc2c(C)nc3c4c(C)cc(C)nc4nn3c2C)cc1, O=C(Nc1cccc(Cl)c1)C1CCN(S(=O)(=O)Cc2ccccc2)CC1, Cc1cc(F)ccc1NC(=O)C1CCN(S(=O)(=O)c2ccc3c(c2)CCCC(=O)N3)CC1, CCCCOc1cccc(C(=O)N(Cc2ccc(Br)o2)C2CCS(=O)(=O)C2)c1 (stereo not given), CC(C)c1cnc2c(c1SCC(=O)c1ccccc1)c(=O)n(C)c(=O)n2C, CC(C)(C)NC(=O)CSc1nc(-c2ccc(F)cc2)cc(C(F)(F)F)n1, O=C(c1cnc2c(c1)COc1ccccc1-2)c1ccccc1O, COc1ccc(S(=O)(=O)N2CCN(c3ccccc3)CC2)cc1-c1noc(C)n1, O=C(Cn1c(=O)c(C(F)(F)F)nc2ccccc21)Nc1ccc(Br)cc1F, CCOC(=O)Cn1c(=O)n(C2CCCCC2)c2nc(-c3ccc(OC)cc3)nc(C(N)=O)c21, Cc1ccc(CNC(=O)C(=O)NCC(c2ccco2)S(=O)(=O)c2ccc(C)cc2)cc1 (stereo not given), Cc1ccc(Cn2c(=O)n(Cc3ccccc3)c(=O)c3c(C)c(C)sc32)cc1, Cc1cccc2c(=O)cc(CSCC(=O)Nc3ccc(Cl)cc3)[nH]c12, COc1ccc(Nc2nc(Nc3ccc(OC)cc3OC)nc(N3CCOCC3)n2)c(OC)c1, CCc1cccc(C)c1NC(=O)c1cc(S(=O)(=O)N2CCC3(CC2)OCCO3)ccc1F, CCCCNC(=O)C1CCN(c2nc3ccc(C)cc3[nH]2)CC1, COc1ccc(-c2nc(C)c(CCNS(=O)(=O)c3ccc(F)cc3)s2)cc1OC

Activity change, negative = inhibition, inactive:
COCCNC(=O)CSc1nc(-c2ccccc2)[nH]c1-c1ccc(C)cc1 4.29%, Cc1cccc(CN2CCN(CC(=O)Nc3c(C)cccc3C)S2(=O)=O)c1 -2.88%, COc1cc(CNc2ccc3[nH]c(=O)[nH]c3c2)cc(Br)c1OCc1ccccc1F -9.05%, Cc1cccc(C(=O)Nc2ccc(N3CCC(N4CCCCC4)CC3)c(C(=O)O)c2)c1 -0.902%, Cc1ccc(Cl)cc1NC(=O)CC1Sc2ccccc2NC1=O (stereo not given) -7.42%, NC1=NC(c2cc(F)cc(F)c2)n2c(nc3ccccc32)N1 (stereo not given) -5.05%, NC(=O)CSc1oc(-c2cccs2)nc1S(=O)(=O)c1ccc(Br)cc1 4.86%, Cc1cccc(C(=O)Nc2ccc(C(=O)OCc3cc(=O)n4c(C)csc4n3)cc2)c1 -5.78%, COc1ccc(S(=O)(=O)NCC(c2ccco2)N2CCN(c3ccc(F)cc3)CC2)cc1 (stereo not given) -0.343%, Cn1nc(-c2ccccc2F)c2cc(C(=O)Nc3cc(F)ccc3F)sc21 14%, Cc1ccccc1Cn1cc(CCC(=O)NCc2cccc(Br)c2)c2ccccc21 -6.52%, COC(=O)c1ccc(NC(=O)N2CCN(c3nnc(C)c4c(C)n(-c5ccccc5)nc34)CC2)cc1 9.08%, Cn1c(=O)n(C)c2cc(CNCc3ccccc3)ccc21 15.5%, COc1cc(NC(=O)c2ccc(-c3ccc(Cl)cc3)o2)cc(OC)c1 -4.46%, Cc1cc(C)c(S(=O)(=O)Nc2cc(Cl)c3oc4c(c3c2)C(=O)CCC4)cc1C -11.8%, COc1ccc(Cc2nc3ccc(C(=O)NCCc4ccc(OC)c(OC)c4)cc3o2)cc1 -1.73%, Cc1cc(C)cc(NC(c2nnc(-c3cccc(F)c3)o2)c2ccc(F)cc2Cl)c1 (stereo not given) 2.85%, CCOc1ccc(C(=O)Nc2ccc(-c3nnc4n3CCCCC4)cc2)cc1OCC 7.07%, Cc1ccc(CNS(=O)(=O)c2cc(Br)cc3c2N(C(=O)C2CC2)CC3)cc1 -4.31%, Cc1ccc2oc(-c3cccc(NC(=O)c4ccc(N5CCC(C)CC5)c([N+](=O)[O-])c4)c3)nc2c1 -13.4%, CCCCNC(=O)CN1C(=O)c2c(c3ccccc3n2C)C1c1ccc(OC)cc1 (stereo not given) -8.15%, CC(C)(C)C(=O)Nc1nc2nc(-c3ccccc3)cc(=O)n2[nH]1 -13.4%, Cc1ccc(S(=O)(=O)N2CCCc3cc(NS(=O)(=O)c4ccc(C)c(C)c4)ccc32)cc1 -9.51%, C[C@]12C=CC(=O)C=C1CC[C@@H]1[C@@H]2C(=O)C[C@@]2(C)[C@H]1CC[C@]2(O)C(=O)CO -10.9% [at 23.2 µM], CC(=O)c1ccc(NC(=O)CSc2c(C(C)C)cnc3c2c(=O)n(C)c(=O)n3C)cc1 -4.23%, COc1ccc(C2CC(=O)c3cc(-c4nc(-c5cccc([N+](=O)[O-])c5)cs4)c(=O)n(-c4ccc(F)cc4)c3C2)cc1 (stereo not given) 7.76%, Cc1oc(-c2ccc(Cl)cc2)nc1CN1CCCC(C(=O)NCCc2ccccc2)C1 (stereo not given) 2.19%, CCOc1ccc(CNCCSc2nnnn2C)cc1OC -26.1%, O=C(CS(=O)(=O)c1cccc2nsnc12)N1CCN(c2ccccc2)CC1 -3.11%, COC(=O)c1ccn(-c2nc(-c3ccc(Cl)cc3)cc(C(F)(F)F)n2)n1 9.46%, c1ccc2c(Oc3nc(Nc4ccc(N5CCOCC5)cc4)c4ncn(C5CCCCC5)c4n3)cccc2c1 -11.3%, COc1ccc(C2(N3CCN(c4cccc(C)c4C)CC3)C(=O)c3ccccc3C2=O)cc1 -4.69%, Cc1c(-c2nnc(SCC(=O)Nc3ccc(Br)cc3)o2)nnn1-c1ccc(F)cc1 7.04%, O=C(Cn1c(=O)n(Cc2ccc(C(=O)NCc3ccc4c(c3)OCO4)cc2)c(=O)c2ccccc21)Nc1ccc(F)cc1F -15.5%, CC(C)c1ccc(CN(Cc2ccco2)c2cnc(S(C)(=O)=O)nc2C(=O)Nc2ccccc2)cc1 6.61%, COC(=O)c1ccccc1NC(=O)c1cn2c3c(ccc(Cl)c3c1=O)OC(C)C2 (stereo not given) -10.7%, Nc1ncnc2nc(-c3ccc(N4CCOCC4)nc3)cc(-c3cccc(Br)c3)c12 -0.797%, Cc1ccc(NC(=O)Nc2cn(CC(C)C)c(=O)c3ccccc23)cc1N(C)C -6.21%, COc1cccc(CNC(=O)C2CCN(C(=O)c3cnn(-c4ccccc4)c3-n3cccc3)CC2)c1 -2.46%, COc1ccc(-c2cc(C(C)=O)c(C)n2CCC(=O)NCc2ccc(C)cc2)cc1 1.74%, CNC(=O)c1c(NC(=O)c2nc(SCc3ccc(C)cc3)ncc2Cl)sc2c1CCCC2 -2.82%

Source: PubChem BioAssay AID1963576 (National Center for Advancing Translational Sciences (NCATS), 2024)
